In PubChem BioAssay AID1030 (National Center for Advancing Translational Sciences (NCATS), 2008):
About 16,000 (7.3%) of roughly 220,000 compounds were called active. The inconclusive results got no clear call from the source; some entries with a clear call stand among them for comparison. Calls come from the whole dose curve; as a rule, active = well fitted inhibition curve with a large enough effect (not every such curve was filed as active); inconclusive = small, poorly fitted or top-dose-only effect, or another doubt; inactive = no such curve, though single readings can be large or run the other way. Potencies beside an inconclusive call are fits to weak or partial responses and may not hold up.

What follows are compounds tested against Aldehyde dehydrogenase 1A1 (Homo sapiens) (UniProt P00352) (assay: qHTS Assay for Inhibitors of Aldehyde Dehydrogenase 1 (ALDH1A1)). Settings: Purified ALDH1A1, NADH fluorescence, propionaldehyde substrate; series mostly up to 75.3 µM; activity, negative = inhibition: at the top concentration.
UniProt P00352, sequence (P00352 whole entry, looked up): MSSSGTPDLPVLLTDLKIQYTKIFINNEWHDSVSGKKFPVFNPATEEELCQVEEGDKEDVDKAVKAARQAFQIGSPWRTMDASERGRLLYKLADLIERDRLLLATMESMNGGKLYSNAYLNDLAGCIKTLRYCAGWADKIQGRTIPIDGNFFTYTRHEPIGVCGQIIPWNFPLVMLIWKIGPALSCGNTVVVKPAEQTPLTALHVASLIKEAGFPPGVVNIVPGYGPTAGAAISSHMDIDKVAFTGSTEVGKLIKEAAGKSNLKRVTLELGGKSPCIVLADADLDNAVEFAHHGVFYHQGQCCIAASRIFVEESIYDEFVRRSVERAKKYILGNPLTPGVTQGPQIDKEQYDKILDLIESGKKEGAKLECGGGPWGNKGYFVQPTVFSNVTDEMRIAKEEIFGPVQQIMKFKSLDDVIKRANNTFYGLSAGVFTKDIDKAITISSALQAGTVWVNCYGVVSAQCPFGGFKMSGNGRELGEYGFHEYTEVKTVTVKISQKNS
Potency is the fitted concentration of half-maximal effect; tags give direction and shape of the fitted curve.
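Throughout, for activity, negative = inhibition: plate controls were no enzyme wells and a reference inhibitor.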

Potency, inconclusive:
Cc1nn(-c2ccc([N+](=O)[O-])cc2)c(N)c1-c1ccccc1 31.6 µM [inhibitor, single point]
CCOc1cc(NC(=S)NCCCN2CCOCC2)c(OCC)cc1NC(=O)c1ccccc1 35.5 µM [inhibitor, single point]
Cn1nc(-c2ccc(Cl)cc2)nc2c(=O)n(C)c(=O)nc1-2 39.8 µM [inhibitor, single point]
O=[N+]([O-])/C=C\c1ccc(N2CCCC2)c(F)c1 39.8 µM [inhibitor, single point]
Cc1ccc(C)n1-c1cccc(C(=O)O)c1 31.6 µM [inhibitor, single point]
Cc1ccc2c(c1)c(C1=NC(=S)NC1=O)c(O)n2C 39.8 µM [inhibitor, single point]
CC(=NCc1ccncc1)C1=C(O)c2ccccc2C1=O 39.8 µM [inhibitor, single point]
CCCn1c(=O)c(C(=O)Nc2ccccc2C(=O)OC)c(O)c2ccccc21 39.8 µM [inhibitor, single point]
O=C(NCc1ccccc1)c1ccc(COCC(F)(F)F)o1 44.7 µM [inhibitor, single point]
NC(=O)C1CCN(C(=O)CCCCCn2c(=O)[nH]c3ccsc3c2=O)CC1 35.5 µM [inhibitor, single point]
CC(=O)Nc1cccc(NC(=O)c2ccc(C(=O)Nc3cccc(NC(C)=O)c3)nc2)c1 39.8 µM [inhibitor, single point]
CCCC1(c2ccccc2)NC(=O)N(CC(=O)c2[nH]c(C)c(C(=O)OCC)c2C)C1=O (configuration not stated) 20 µM [inhibitor, partial curve]
COc1ccc(-c2nc3cnc(OC)nc3n(-c3ccccc3)c2=O)cc1 39.8 µM [inhibitor, single point]
COc1ccc2c(c1)c(=O)oc1cc(OCC(=O)N3CCC(C)CC3)ccc12 15.8 µM [inhibitor, partial curve]
O=C(CCNC(=O)Cn1ccc2ccccc2c1=O)NCCCN1CCN(c2ccccc2F)CC1 22.4 µM [inhibitor, single point]
C=CCSC1=C(C#N)C(c2ccccc2OCC)C(C#N)C(=O)N1 (configuration not stated) 39.8 µM [inhibitor, single point]
Clc1cccc(-c2nc3nc4ccccc4nc3n2Cc2ccccc2)c1 35.5 µM [inhibitor, single point]
O=S(=O)(c1ccc(-c2ccon2)s1)N1CCN(c2ccccn2)CC1 39.8 µM [inhibitor, single point]
CC(=O)Nc1cccc(NC(=O)C(=O)c2cn(CC(=O)N3CCCCC3)c3ccccc23)c1 35.5 µM [inhibitor, partial curve, poor fit]
Cc1ccc(C(C(=O)NC2CCCCC2)N(Cc2ccccc2)C(=O)Cc2c[nH]c3ccccc23)o1 (configuration not stated) 44.7 µM [inhibitor, single point]
COCCn1c(=O)c(-c2cc(F)cc(F)c2)nc2cnc(Oc3cccc(Cl)c3)nc21 15.8 µM [inhibitor, partial curve]
CC1(C)Cc2c(c(-c3ccccc3)nc3[nH][nH]c(=O)c23)CO1 39.8 µM [inhibitor, single point]
O=C(CN1CCN(c2ccccc2)CC1)c1ccc2cc[nH]c2c1 25.1 µM [inhibitor, partial curve]
c1ccc(-c2cc(N3CCCCCC3)n[nH]2)cc1 44.7 µM [inhibitor, single point]
CCc1ccccc1NC(=O)CC(c1ccc(OC)cc1)n1cccc1 (configuration not stated) 37.7 µM [inhibitor, single point]
CCN(CC)S(=O)(=O)c1ccc(C(=O)NCc2ccc3[nH]c4c(c3c2)CCCC4)cc1 39.8 µM [inhibitor, single point]
CC(C)(C)CN1CCNC(=O)C1CC(=O)NCCN1CCCc2ccccc21 (configuration not stated) 31.6 µM [inhibitor, partial curve]
CSc1ccccc1C(=O)Nc1nccs1 0.0126 µM [inhibitor, full curve, poor fit]
COc1cc(C2NCC(c3ccc(Cl)cc3Cl)c3c2[nH]c2ccccc32)cc(OC)c1OC (configuration not stated) 39.8 µM [inhibitor, single point]
CCn1c2ccccc2c2cc(N)ccc21 28.2 µM [inhibitor, partial curve]
CCOc1ccc(NC(=O)CC2C(=O)N(C)C(=S)N2CCCc2ccccc2)cc1 (configuration not stated) 39.8 µM [inhibitor, single point]

Potency, active:
O=C(N/N=C/c1ccc([N+](=O)[O-])o1)c1ccc(O)cc1 25.1 µM
COc1ccc(N=C2SC(CC(=O)Nc3ccccc3F)C(=O)N2Cc2ccco2)cc1 (configuration not stated) 2.51 µM
CC(=O)Nc1ccc(S(=O)(=O)NCC(=O)OCC(=O)N2CCN(c3ccccc3)CC2)cc1 20 µM
CC(C)(C)c1ccc(S(=O)(=O)N2CCCCC2C(=O)NCc2ccccn2)cc1 (configuration not stated) 3.98 µM
C[C@@]12CC[C@@H]3[C@H](CCC4=CC(=O)CC[C@]43C)[C@@H]1CC[C@@H]2C(=O)COS(=O)(=O)c1ccc(Br)cc1 3.55 µM
COC(=O)CSc1ccc(S(=O)(=O)N2CCCCCC2)cc1[N+](=O)[O-] 10 µM
S=C1NC2=C(CCCC2=C2SCCS2)C(c2ccccc2)N1 (configuration not stated) 0.355 µM
CCOc1ccc(NC(=O)COC(=O)CCCc2c[nH]c3ccccc23)cc1 15.8 µM
CCOC(=O)C1CCN(Cc2nc3ccc([N+](=O)[O-])cc3c(=O)n2-c2ccc(OC)cc2OC)CC1 20 µM
CCn1c(SCC(=O)N/N=C/C=C\c2ccco2)nc2ccccc21 10 µM
COc1cccc(N2C(C(C)=O)=NN(c3ccccc3)C2c2ccc(N3CCOCC3)cc2)c1 (configuration not stated) 14.1 µM
COC(=O)c1cc(=O)n(Cc2ccco2)c(=Nc2ccc(F)c(Cl)c2)s1 3.55 µM
COC(=O)c1c(NC(=S)Nc2ccc(F)cc2[N+](=O)[O-])sc2c1CCCCC2 3.98 µM
CCOC(=O)N1CCc2c(sc3nc(SC(C)C)n(N)c(=O)c23)C1 4.47 µM
Oc1ccc2c(c1)C1CCCC1(N1CCOCC1)O2 (configuration not stated) 17.8 µM
COc1ccc(OC)c(NC(=O)CC2SC(=NCc3ccccc3)NC2=O)c1 (configuration not stated) 39.8 µM
O=C(Cn1c(S(=O)(=O)Cc2ccccc2)nc2ccccc21)N1CCCCC1 25.1 µM

activity, negative = inhibition, inactive:
OCC1OC(c2ccccc2)C=CC1Oc1ccc(C2CCCC2)cc1 (configuration not stated) 1.51% [at 13.5 µM]
O=C(c1nc2ccccn2c1CNCCCn1nnc2ccccc21)N1CCOCC1 -3.93%
CCOC(=O)c1cccc(NC(=O)CSc2nc3ccccc3c(=O)n2CCOC)c1 8.42%
Fc1ccc(CSc2nncn2NCc2ccccc2)cc1 3.92%
Nc1ccc(NC(=S)Nc2ccccc2)cc1 -10.1%
COc1ccc(N(C)S(=O)(=O)c2ccc(Cl)c(C(=O)NCCc3ccc(Cl)cc3)c2)cc1 -9.32%
COc1ccc(CC(N)C(=O)NC2C(O)[C@H](n3cnc4c(N(C)C)ncnc43)O[C@@H]2CO)cc1 (some centres not stated) 2.23%
CC(=O)Nc1nc(C(=O)O)cs1 0.464%
C[C@@H](SCc1ccccc1)C(=O)O 4.18% [at 13.5 µM]
C=CCn1c(SCC(=O)N2N=C(c3ccco3)CC2c2ccco2)nnc1-c1ccncc1 (configuration not stated) -13.7%
Cc1ccc(C)c(NC(=S)N2CCN(CCO)CC2)c1 10.4%
CN1CCN(Cc2cccc(Oc3ccccc3)c2)CC1 6.48%
CCOc1ccc(C(=O)OCc2nnc(-c3cccs3)o2)cc1OC 0.807%
COc1ccc(-c2noc(CCCc3ccccc3)n2)cc1OC 3.82%
CC(C)c1ccc(C2CC(c3ccc(Br)cc3)=NN2C(N)=S)cc1 (configuration not stated) -6.16%
c1ccc([P+](CC[P+](c2ccccc2)(c2ccccc2)c2ccccc2)(c2ccccc2)c2ccccc2)cc1 1.91% [at 13.5 µM]
COc1ccc(NC(=O)Nc2nnc(-c3ccccc3SCc3ccccc3)s2)cc1 -5.63%
Cc1ccc(Cn2cc(/C=N/NC(=O)Cc3nnc(NC(=O)c4ccc(C)cc4)s3)c3ccccc32)cc1 -4.16%
COc1ccc(OC)c2[nH]c(=O)c(CCNC(=O)Cc3cccs3)cc12 -1.08%
CC(C)(C)NC(=S)N/N=C/c1c(Cl)cccc1Cl 7.27%
CN(C)CC(C)(C)CN1c2ccccc2Sc2ccccc21 1.59% [at 13.5 µM]
CC(C)(C)n1nnnc1C(c1cccnc1)N1CCN(c2ccccc2F)CC1 (configuration not stated) -9.3%
CN(C)c1nc(N(C)C)n(C(=O)c2ccc(F)cc2)n1 11.4%
Cn1c(=O)c(C(=O)COC(=O)c2cc(C(F)(F)F)nc3c(C(F)(F)F)cccc23)c(N)n(Cc2ccccc2)c1=O -6.13%
COc1ccc(C(=O)c2ccc(OC)cc2O)c(O)c1 7.41%
CCOC(=O)C(C)Sc1ncc(-c2ccccc2)cn1 (configuration not stated) 8.41%
CC(N)c1ccc(Cl)cc1Cl (configuration not stated) 1.24%
COc1ccc(NC(=O)c2ccccc2-c2ccccc2)c(C)c1 1.32%
CC(NC(=O)COC(=O)/C(=C/c1cccs1)c1cccs1)c1ccccc1 (configuration not stated) 5.46%
